Laboratory results published in the supplement of paper PMC3334620.
Whole data set: some 33,000 sequences, median “E-score (-0.5 to 0.5)” near -0.053, cut for the highest 2% near 0.37. This is one part of the list.

molecular target: Hap1 (UniProt P0CE41); assay: PBM E-score (8-mer binding enrichment) (E-score (-0.5 to 0.5)); higher = stronger / more preferred TF binding; most listed sequences are background and not binding sites; settings: protein concentration: 200 nM; construct: GST-DNA-binding domain
Sequence of UniProt P0CE41 (P0CE41 whole entry, the tested form may be a part): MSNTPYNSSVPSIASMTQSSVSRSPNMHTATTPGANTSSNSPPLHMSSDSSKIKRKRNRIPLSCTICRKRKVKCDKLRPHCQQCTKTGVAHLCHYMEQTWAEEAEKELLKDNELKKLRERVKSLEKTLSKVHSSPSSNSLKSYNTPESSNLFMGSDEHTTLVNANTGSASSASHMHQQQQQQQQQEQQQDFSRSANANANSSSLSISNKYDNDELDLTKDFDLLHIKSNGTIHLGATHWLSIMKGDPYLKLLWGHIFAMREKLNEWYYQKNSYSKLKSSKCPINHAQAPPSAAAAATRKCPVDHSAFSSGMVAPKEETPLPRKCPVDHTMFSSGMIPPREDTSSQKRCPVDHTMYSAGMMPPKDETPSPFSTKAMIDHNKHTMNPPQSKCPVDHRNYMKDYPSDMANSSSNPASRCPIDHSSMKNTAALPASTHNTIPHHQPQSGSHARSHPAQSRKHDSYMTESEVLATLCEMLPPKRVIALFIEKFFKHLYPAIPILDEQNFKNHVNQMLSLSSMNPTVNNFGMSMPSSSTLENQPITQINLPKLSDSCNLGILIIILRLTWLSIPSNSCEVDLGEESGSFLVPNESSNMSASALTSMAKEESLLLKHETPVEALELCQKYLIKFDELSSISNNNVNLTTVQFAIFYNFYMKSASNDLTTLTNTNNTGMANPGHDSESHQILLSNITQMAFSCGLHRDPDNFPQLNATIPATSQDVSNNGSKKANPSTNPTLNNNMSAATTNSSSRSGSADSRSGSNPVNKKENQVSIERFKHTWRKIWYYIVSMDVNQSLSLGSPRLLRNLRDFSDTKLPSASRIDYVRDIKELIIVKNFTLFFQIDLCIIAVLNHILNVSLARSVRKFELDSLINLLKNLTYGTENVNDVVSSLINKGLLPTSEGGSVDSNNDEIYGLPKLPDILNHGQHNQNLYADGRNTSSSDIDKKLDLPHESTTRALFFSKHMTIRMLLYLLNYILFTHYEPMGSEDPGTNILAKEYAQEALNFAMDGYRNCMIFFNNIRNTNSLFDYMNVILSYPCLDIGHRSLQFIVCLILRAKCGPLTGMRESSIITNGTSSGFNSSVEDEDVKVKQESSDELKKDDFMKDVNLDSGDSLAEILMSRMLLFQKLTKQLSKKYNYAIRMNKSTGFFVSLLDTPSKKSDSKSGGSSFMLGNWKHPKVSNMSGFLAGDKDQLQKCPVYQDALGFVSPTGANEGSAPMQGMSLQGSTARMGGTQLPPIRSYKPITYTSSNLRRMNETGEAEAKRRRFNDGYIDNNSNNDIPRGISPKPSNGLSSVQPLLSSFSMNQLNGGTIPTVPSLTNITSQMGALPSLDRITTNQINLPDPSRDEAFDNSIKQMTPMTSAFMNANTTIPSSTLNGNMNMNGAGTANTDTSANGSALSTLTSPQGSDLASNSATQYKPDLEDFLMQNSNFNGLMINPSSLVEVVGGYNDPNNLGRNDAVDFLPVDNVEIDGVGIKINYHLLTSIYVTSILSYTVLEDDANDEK
Summary of the method: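 Yeast transcription factors, full-length or as DNA-binding domains, were expressed with a GST tag using PURExpress in vitro transcription/translation. At about 100-200 nM they were applied to universal all-10-mer Agilent arrays, double-stranded by primer extension on fresh or once-stripped slides. Fluorescent anti-GST detected bound protein, and masliner normalised the scans. E-scores for ungapped eight-base words, pooled with reverse complements, came from the Universal PBM Analysis Suite.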

Sequence | PBM E-score
ATATGCCC | 0.0832
ATATCAAG | -0.107
ATAAAGCA | -0.191
CATACAGG | -0.13
AGATGTAA | -0.0625
CCCCTGAG | -0.248
CTATCATC | -0.0812
ACTGAGGG | -0.321
CGGTCCAA | 0.232
CATAGATA | -0.0541
TTCGCGAA | 0.138
CGGAAAGC | 0.189
AAACTTAG | -0.171
ATCTGCCC | 0.0792
TCGATACA | -0.0572
ATTAGGAG | -0.101
ACAGTGAT | -0.158
CCGATAAC | 0.447
AATGCGGG | 0.193
CAGACATC | -0.065
ATGGAAGC | -0.0553
GTTTTGAA | -0.168
GGCGGTAA | 0.373
CCAAGTGA | -0.13
ATCGCACC | 0.103

Sequence | PBM E-score
AAGGTTCC | 0.00065
GGCGTACC | 0.179
TAACGGTA | 0.116
TACTTTGA | -0.271
GGGTCCGA | 0.38
GGATCGCA | -0.0125
CCAGGAGA | -0.0815
CATGGAGA | -0.0788
CCTGATAA | -0.158
CCCCTAAA | -0.0343
CAGGCTGC | -0.319
GTATTAAA | 0.0705
CCTAACAA | -0.247
CATCGCTC | 0.154
TTGTCAAA | -0.0715
GTACTCAC | -0.18
AAGTAAAG | 0.00599
TAGGTAGA | -0.104
ATTCCCAG | 0.136
CCTTCAAA | -0.0271
CGTCTCTA | -0.0739
ATATGCTA | -0.044
GCAAATAA | 0.152
AACCGTCA | 0.0148
CTGGCGAC | -0.183

Sequence | PBM E-score
AACCTTCG | 0.11
CTTGAATA | -0.0894
CCTCCCAA | -0.163
ACGCTGCT | -0.21
GAACTAGA | -0.0376
GGAGGAGA | 0.0576
CAAATTGC | -0.055
CCGGTGAC | 0.315
ACTAGCAC | -0.17
CTCCGATA | 0.432
AGTTGTAA | -0.205
ATTTTATA | 0.103
GCTTCTAC | -0.152
AGCAATGG | 0.016
ATGGTGAG | -0.179
GACCAGTC | -0.119
AGGACAGA | -0.241
AGGAATGA | -0.0117
GTGCGACA | -0.138
AGTTAGTC | 0.0274
ACGCAAGT | -0.231
CGTATCGA | -0.196
CGTGGGCA | -0.295
CGTGAGAA | 0.00234
AACATTGA | -0.111

Sequence | PBM E-score
CCACTCGA | -0.103
CGCGGGAC | 0.217
CATGGCAC | 0.178
CACTTCCG | 0.191
GGCTAGTA | -0.0702
AGTTAGGA | -0.104
ACTTCCCG | 0.224
ACCCTCGT | -0.113
AATTGCGC | 0.253
CATGGTAA | -0.168
ACGTATAC | -0.0716
CTTTCCAC | 0.0633
ACCCCCCT | -0.248
CAACAATA | -0.13
TACTGTCA | -0.181
AGGATTCA | -0.12
CTGGAGTC | -0.208
CTCCAAGA | -0.276
CTACCGAA | 0.0576
CGCCTAAC | 0.00163
GCTAGTGA | -0.111
CCGGTTAG | 0.308
CGGCGCAG | 0.136
ACCCTCAT | -0.181
AGTACCAC | -0.148

Sequence | PBM E-score
AACGAGTG | -0.214
TAACAGGA | -0.161
ATACTCCG | 0.407
GCCGATAC | 0.417
CGAAATGC | 0.186
CACGCATC | 0.113
GGAGTTTA | 0.336
AACGTTCC | 0.105
CTTGAGAA | -0.33
ATTTCGTA | -0.104
CCCCGCCC | 0.303
AACTTCTC | -0.0545
CCGATTTC | 0.307
ATACCAAA | -0.00671
ATGCACTC | -0.114
ACAGATAG | -0.219
GCTGGGTA | -0.163
AACAGTAT | -0.256
ACTTATGG | 0.111
CCATTGAG | -0.0522
ATACCGCG | 0.21
ATTTATTG | -0.063
ATAGAAAG | -0.0625
GTTGGACA | -0.116
GAGCGCTC | 0.022

Sequence | PBM E-score
TACTATGA | -0.164
AGTCGGAC | 0.318
GTTGCCTA | 0.0253
CTGCCGCC | -0.104
CAAGTTGA | -0.0848
GACCATCA | 0.034
AAAGTTAA | -0.0461
AAGTAAGT | -0.0777
AACGGCAG | 0.0221
ACTTATAC | 0.0348
ATTGTGTC | -0.0663
CAATTCTC | -0.0428
GATCTCGC | -0.00807
CCCATAAG | -0.026
AGCCTCCT | -0.13
ACCCTAGG | -0.234
AATGGCTA | -0.17
GGGTATGA | 0.0413
CCAAAAGA | -0.0792
AGGCGAGC | -0.172
CACCGACG | 0.36
GTTAGCAA | -0.0968
AAATGAGC | -0.0835
ATATCCAC | -0.00436
CGTACCTC | -0.0658

Sequence | PBM E-score
ATTCGGCG | 0.278
AGGCGTAT | -0.311
CAACGCAA | -0.0686
GGCGAACA | 0.0613
ACATGGGG | -0.109
CCCGGCGG | 0.301
CGTCGTCC | 0.227
GCTAACAC | -0.0478
AGATACAC | -0.0669
ACCGGGCT | 0.334
GATTCGAA | 0.0746
GCCGATCA | 0.263
ACTAATTA | -0.0758
CACCATCC | 0.0474
AGATTGCT | -0.232
CATCACAC | -0.105
AAATCAGC | -0.0987
GAACAATC | 0.13
CATGCAGG | -0.252
CTTCGCCC | 0.228
AGTGATGC | -0.21
GTTGAATA | 0.00984
CCAACCGG | 0.261
AGTTCCTC | -0.0498
TGGACCAA | -0.0209

Sequence | PBM E-score
ATAGACAC | -0.248
AAGATACA | -0.132
AAGAAGTA | -0.0966
ATATGGGG | 0.032
AGAGAGCG | 0.0503
CACCAAGC | -0.174
CAGTCCCC | -0.149
ATGGGGGC | -0.174
GGTCTGTA | -0.0296
CACAAATG | -0.287
ACTAGACG | -0.238
GTACGGCA | -0.0308
GCGGACCC | 0.266
CAACGGAA | 0.285
ATATGAAC | -0.0467
ACCGGCAT | 0.327
CCAGTGAC | -0.279
GTCACGGA | 0.371
CAGATTGG | -0.105
GTCCGGCA | 0.35
GTCTGAAC | -0.233
AAGAATTC | -0.0295
ACGTTTTC | -0.00604
AAGGCGAA | 0.0588
AGGCAACC | -0.0659

Sequence | PBM E-score
ATTAAAAA | 0.153
AACCAGGC | 0.0299
TCGTGAGA | 0.0639
CTCGCACC | -0.0557
AAAGGCGC | -0.0167
TCAAGTCA | -0.153
GGGATTTA | 0.327
ATGAGCTA | -0.0958
AAGCTGTG | -0.239
ACCATCAT | -0.224
GTTAAATA | -0.0135
CAGCACGA | -0.00414
GAACGGCA | 0.0583
AGTATGTG | -0.0705
GCCGCTAC | 0.319
CACGTAAC | -0.0508
TGTGAGAA | -0.199
TCCACCCA | -0.237
GAGAGTCA | -0.254
ACGGGATC | 0.029
TAAGTCTA | -0.13
GCACTGAA | -0.0564
ATGTAGTA | -0.0187
ATCAGCTC | -0.0586
CGGCCCCC | 0.0446

Sequence | PBM E-score
CTTTAGGA | -0.101
TGTTGAAA | -0.0236
CTAACCCA | -0.188
CGATTCCA | 0.145
AACATTCC | 0.0487
AACCTTTG | -0.0576
GGCCGCCC | 0.157
AAGCGTCA | -0.211
GGTTAACC | 0.154
ATGAAACC | 0.111
CGAGGTTC | 0.153
AGGTTACC | 0.164
CGGAGTTC | 0.394
AATTGTGA | -0.186
AGTCCCAA | -0.0326
CCATAACA | 0.018
AGTCTTAA | -0.173
AGCGCGAC | -0.097
CCCAGAAC | -0.157
ATTTCTAA | -0.0358
ATTGGGTC | 0.0667
CTAGCTAA | -0.146
ACCGCTCG | 0.138
GTTGAGTA | -0.0445
AATCCTAC | -0.124

Sequence | PBM E-score
CATCAAGC | -0.0689
AGTCCAGC | -0.206
ATTCGGCA | 0.224
GAGCGCAA | -0.175
TCGTATCA | -0.126
GCGGGTTA | 0.186
CGAGTCAC | -0.0297
CCGCGAGA | 0.0382
AAATTATC | 0.00869
CGTTTGAC | -0.00884
GACGTAAC | -0.0523
GTGTAGGA | -0.0476
AGATTGAC | -0.0733
AGCAGAAG | -0.152
ACAGGCGC | -0.177
GAAGGATA | -0.051
CACGCGAA | -0.194
CACAAGTG | -0.295
AATCTGCA | -0.242
ATCCTTTA | -0.0914
ATTTATGA | -0.0066
ACGGTTAA | 0.0365
ATGATCGG | 0.249
GTGTATGA | -0.114
AGAGGTAT | -0.0675

Sequence | PBM E-score
GAACAAAA | -0.0791
TCTTTGAA | -0.225
CACTATCA | -0.209
ATTTCTAG | 0.109
ACCCAGGA | -0.237
CCCACATA | -0.112
CAGTTCAA | -0.0453
AACCAAAA | 7e-05
CGCTCCGC | 0.154
CCAGCACA | -0.11
TAGGCTAA | -0.138
GTAGTGAA | -0.0109
CCGAATAG | 0.249
CATCAGTC | 0.00317
ACCTAGGC | -0.18
ACGCAGTG | -0.295
ACCCCAAC | 0.0008
ACGTGGAT | -0.138
ATGCGAGC | -0.039
ACTCTGCT | -0.162
CCACACTC | -0.00041
GCACGTAC | -0.141
ACACTTTC | 0.105
ATACAAAA | -0.0974
GCTGTGTA | -0.116

Sequence | PBM E-score
CTCTAAGC | 0.0646
ACAAAGAC | 0.00731
CCCCCTCA | -0.332
CATAGGGA | -0.0458
ATATTTTG | 0.0391
ACTGTGTA | -0.0809
AGTTACTC | -0.105
ACGCTATA | -0.162
ATATATAA | 0.0834
AAATTGAC | 0.0406
CCTTTTAG | -0.29
CCCGTATA | 0.186
ATGTCTCA | -0.194
TTCCCGAA | 0.338
TCCTACGA | -0.165
AAGCTCTC | 0.0513
AGTGGGGA | -0.0494
ACATTATC | 0.0642
AATTCCTA | -0.159
CTAGGCAG | -0.172
CCACAACA | -0.322
ACACCGGT | 0.359
ACATGGAA | 0.147
GAGTCACA | -0.137
CGACCAGC | -0.0159

Sequence | PBM E-score
CGTTCCGA | 0.123
ACCCTACG | -0.15
AGTCATAC | -0.163
ACCGGGAT | 0.362
GCACATCC | -0.0228
GTCGCAAA | -0.117
ATCCTCTC | -0.186
GGGAGGCA | -0.0741
ACAAAGAT | -0.287
AGGCTGTA | -0.172
CGTACCCC | 0.108
ACAATATA | 0.141
CTATGCAA | -0.239
CTCCAGTA | -0.0175
CGCTCCTC | -0.0595
TAACCAGA | -0.122
ACTGCCAT | -0.163
ACGGTACC | 0.207
ATGTACAA | -0.0682
